Test results taken from US20090291088A1, “THERAPEUTIC COMBINATIONS OF ANTI-IGF-1R ANTIBODIES AND OTHER COMPOUNDS” (Biogen Idec MA Inc., priority 2008, published 2009).

Assays:
[1] = tested on: BxPC3; assay: IGF-1 and IGF-2 stimulated tumor cell growth, CELL TITER-GLO, BxPC3; format: cell-based, human; conditions: IGF at 100 ng/ml, serum free
Description: (§1) NCI-H23, Calu-6, Colo-205, Panc-1, BxPC-3 (ATCC) tumor lines were purchased from ATCC. Cell lines were grown in complete growth medium containing RPMI-1640 (ATCC), 10% fetal bovine serum (Irvine Scientific Inc.) and 50 μg/ml of Gentamycin (Gibco, Invitrogen). Trypsin-EDTA solution (Sigma) was used for removal of adherent cells from culture vessels. Phosphate buffered saline, pH 7.2, was from MediaTech Inc The 96-well clear bottom plates for luminescent assay was purchased from Wallac Inc.
(§2) Cells grown to 80% monolayers were, trypsinized, washed, resuspended and plated into 96-well plates in 200 μl of 2% growth medium at 8×10^3 cells/well for NCI-H23 and Colo-205 cells; and 5×10^3 cells/well for Calu-6, Panc-1 and BxPC-3 cells. After 24 hours, the culture medium was replaced with 100 μl of serum free medium (SFM), and 50 μl of serially diluted antibodies at 4× concentration was added. […] All treatments were done in triplicates. Cell growth was measured using the CELL TITER-GLO™ Luminescent Cell Viability Assay (Promega, Madison, Wis.). The 1:1 mixture of reagent and SFM was added at 200 μl/well. Luminescence was detected on Wallac (Boston, Mass.) plate reader.
Method: The effect of antibody on tumor growth in vitro was measured using a CELL TITER-GLO™ assay (Promega Corporation, 2800 Woods Hollow Rd., Madison, Wis. 53711 USA). […] Inhibition was calculated as [1−(Ab−SFM)/(IGF−SFM)]×100%. […]

[2] = tested on: human tumor lines (H-23, Calu-6, BxPc-3, Panc-1, MiaPaCa, Colo205); assay: In vitro growth of lung, pancreas and colon tumor cell lines in medium supplemented with IGF-1 or IGF-2; format: cell-based
Description: as §1, §2
The ability of the selected murine antibodies to inhibit IGF/IGF-1R dependent in vitro growth of several human tumor lines (Lung, H-23, Calu-6; Pancreas, BxPc-3, Panc-1, MiaPaCa and Colon Colo205) was measured by a proliferation assay described in Example 13.

B1: M14-G11.G4.P: full-length human IgG4.P version of Fab M14-G11 (antibody, V domains shown)
VH: EVQLLESGGGLVQPGGSLRLSCAASGFTFSNYPMYWVRQAPGKGLEWVSRISSSGGRTVYADSVKGRFTISRDNSKNTLYLQMNSLRAEDTAVYYCARDRWSRSAAEYGLGGYWGQGTLVTVSS
VL: DIQMTQSPDSLAVSLGERATINCKSSQSVLYSSNNKNYLAWYQQKPGQPPKLLIYLASTRESGVPDRFSGSGSGTDFTLTISSLQAEDVAVYYCQQYYSTWTFGQGTKVEIK
In the case of B1, the “inhibition of BxPC3 cell proliferation driven with IGF-1 and IGF-2” value [1] is reported as “inhibited”.

B2: M13-C06.G4.P.agly: full-length hinge-modified aglycosylated human gamma 4, kappa antibody with the binding domain of Fab M13-C06 (antibody)
heavy: EVQLLESGGGLVQPGGSLRLSCAASGFTFSIYRMQWVRQAPGKGLEWVSGISPSGGTTWYADSVKGRFTISRDNSKNTLYLQMNSLRAEDTAVYYCARWSGGSGYAFDIWGQGTMVTVSSASTKGPSVFPLAPCSRSTSESTAALGCLVKDYFPEPVTVSWNSGALTSGVHTFPAVLQSSGLYSLSSVVTVPSSSLGTKTYTCNVDHKPSNTKVDKRV[human IgG4 Fc with S228P T299A (EU numbers) not written out]
light: DIQMTQSPLSLSASVGDRVTITCQASRDIRNYLNWYQQKPGKAPKLLIYDASSLQTGVPSRFGGSGSGTDFSFTIGSLQPEDIATYYCQQFDSLPHTFGQGTKLEIKRTVAAPSVFIFPPSDEQLKSGTASVVCLLNNFYPREAKVQWKVDNALQSGNSQESVTEQDSKDSTYSLSSTLTLSKADYEKHKVYACEVTHQGLSSPVTKSFNRGEC
Work on B2 yielded a percent growth inhibition ([2]; A549 (Lung), IGF-1 in Media, 0.1 nM antibody) of 39%, a percent growth inhibition ([2]; A549 (Lung), IGF-1 in Media, 1 nM antibody) of 58% and a percent growth inhibition ([2]; A549 (Lung), IGF-1 in Media, 10 nM antibody) of 79%. The percent growth inhibition ([2]; A549 (Lung), IGF-1 in Media, 100 nM antibody) was 87%, the percent growth inhibition ([2]; A549 (Lung), IGF-2 in Media, 0.1 nM antibody) was 37% and the percent growth inhibition ([2]; A549 (Lung), IGF-2 in Media, 1 nM antibody) was 61%. It also gave a percent growth inhibition ([2]; A549 (Lung), IGF-2 in Media, 10 nM antibody) of 76%, a percent growth inhibition ([2]; A549 (Lung), IGF-2 in Media, 100 nM antibody) of 85% and a percent growth inhibition ([2]; BXPC3 (Pancreas), IGF-1 in Media, 0.1 nM antibody) of 12%. The percent growth inhibition ([2]; BXPC3 (Pancreas), IGF-1 in Media, 1 nM antibody) was 34%, the percent growth inhibition ([2]; BXPC3 (Pancreas), IGF-1 in Media, 10 nM antibody) was 54% and the percent growth inhibition ([2]; BXPC3 (Pancreas), IGF-1 in Media, 100 nM antibody) was 82%. It also gave a percent growth inhibition ([2]; BXPC3 (Pancreas), IGF-2 in Media, 0.1 nM antibody) of 63%, a percent growth inhibition ([2]; BXPC3 (Pancreas), IGF-2 in Media, 1 nM antibody) of 79% and a percent growth inhibition ([2]; BXPC3 (Pancreas), IGF-2 in Media, 10 nM antibody) of 96%. The percent growth inhibition ([2]; BXPC3 (Pancreas), IGF-2 in Media, 100 nM antibody) was 99%, the percent growth inhibition ([2]; Calu-6 (Lung), IGF-1 in Media, 0.1 nM antibody) was 12% and the percent growth inhibition ([2]; Calu-6 (Lung), IGF-1 in Media, 1 nM antibody) was 15%. It also gave a percent growth inhibition ([2]; Calu-6 (Lung), IGF-1 in Media, 10 nM antibody) of 19%, a percent growth inhibition ([2]; Calu-6 (Lung), IGF-1 in Media, 100 nM antibody) of 53% and a percent growth inhibition ([2]; Calu-6 (Lung), IGF-2 in Media, 0.1 nM antibody) of −4%. The percent growth inhibition ([2]; Calu-6 (Lung), IGF-2 in Media, 1 nM antibody) was 16%, the percent growth inhibition ([2]; Calu-6 (Lung), IGF-2 in Media, 10 nM antibody) was 27% and the percent growth inhibition ([2]; Calu-6 (Lung), IGF-2 in Media, 100 nM antibody) was 62%. For the same molecule, the percent growth inhibition ([2]; Capan-1 (Pancreas), IGF-1 in Media, 1 nM antibody) was 0%, the percent growth inhibition ([2]; Capan-1 (Pancreas), IGF-1 in Media, 10 nM antibody) was 20% and the percent growth inhibition ([2]; Capan-1 (Pancreas), IGF-1 in Media, 100 nM antibody) was 17%. For the same molecule, the percent growth inhibition ([2]; Capan-1 (Pancreas), IGF-2 in Media, 0.1 nM antibody) was 19%, the percent growth inhibition ([2]; Capan-1 (Pancreas), IGF-2 in Media, 1 nM antibody) was 12% and the percent growth inhibition ([2]; Capan-1 (Pancreas), IGF-2 in Media, 10 nM antibody) was 12%. It also gave a percent growth inhibition ([2]; Capan-1 (Pancreas), IGF-2 in Media, 100 nM antibody) of 31%, a percent growth inhibition ([2]; Capan-2 (Pancreas), IGF-1 in Media, 0.1 nM antibody) of 14% and a percent growth inhibition ([2]; Capan-2 (Pancreas), IGF-1 in Media, 1 nM antibody) of 22%. It also gave a percent growth inhibition ([2]; Capan-2 (Pancreas), IGF-1 in Media, 10 nM antibody) of 36%, a percent growth inhibition ([2]; Capan-2 (Pancreas), IGF-1 in Media, 100 nM antibody) of 49% and a percent growth inhibition ([2]; Colo 205 (Colon), IGF-1 in Media, 0.1 nM antibody) of 15%. It also gave a percent growth inhibition ([2]; Colo 205 (Colon), IGF-1 in Media, 1 nM antibody) of 37%, a percent growth inhibition ([2]; Colo 205 (Colon), IGF-1 in Media, 10 nM antibody) of 56% and a percent growth inhibition ([2]; Colo 205 (Colon), IGF-1 in Media, 100 nM antibody) of 76%. For the same molecule, the percent growth inhibition ([2]; Colo 205 (Colon), IGF-2 in Media, 0.1 nM antibody) was 18%, the percent growth inhibition ([2]; Colo 205 (Colon), IGF-2 in Media, 1 nM antibody) was 30% and the percent growth inhibition ([2]; Colo 205 (Colon), IGF-2 in Media, 10 nM antibody) was 45%. The percent growth inhibition ([2]; NCI-H23 (Lung), IGF-1 in Media, 0.1 nM antibody) was 12%, the percent growth inhibition ([2]; NCI-H23 (Lung), IGF-1 in Media, 1 nM antibody) was 32% and the percent growth inhibition ([2]; NCI-H23 (Lung), IGF-1 in Media, 10 nM antibody) was 61%. The percent growth inhibition ([2]; NCI-H23 (Lung), IGF-1 in Media, 100 nM antibody) was 84%, the percent growth inhibition ([2]; NCI-H23 (Lung), IGF-2 in Media, 1 nM antibody) was 32% and the percent growth inhibition ([2]; NCI-H23 (Lung), IGF-2 in Media, 10 nM antibody) was 61%. For the same molecule, the percent growth inhibition ([2]; NCI-H23 (Lung), IGF-2 in Media, 100 nM antibody) was 85%, the percent growth inhibition ([2]; Panc-1 (Pancreas), IGF-1 in Media, 0.1 nM antibody) was 0% and the percent growth inhibition ([2]; Panc-1 (Pancreas), IGF-1 in Media, 1 nM antibody) was 0%. It also gave a percent growth inhibition ([2]; Panc-1 (Pancreas), IGF-1 in Media, 10 nM antibody) of 18%, a percent growth inhibition ([2]; Panc-1 (Pancreas), IGF-1 in Media, 100 nM antibody) of 60% and a percent growth inhibition ([2]; Panc-1 (Pancreas), IGF-2 in Media, 0.1 nM antibody) of 0%. The percent growth inhibition ([2]; Panc-1 (Pancreas), IGF-2 in Media, 1 nM antibody) was 12%, the percent growth inhibition ([2]; Panc-1 (Pancreas), IGF-2 in Media, 10 nM antibody) was 35% and the percent growth inhibition ([2]; Panc-1 (Pancreas), IGF-2 in Media, 100 nM antibody) was 62%. For the same molecule, the percent growth inhibition ([2]; SK-MES-1 (Lung), IGF-1 in Media, 0.1 nM antibody) was −30%, the percent growth inhibition ([2]; SK-MES-1 (Lung), IGF-1 in Media, 1 nM antibody) was −15% and the percent growth inhibition ([2]; SK-MES-1 (Lung), IGF-1 in Media, 10 nM antibody) was 5%. For the same molecule, the percent growth inhibition ([2]; SK-MES-1 (Lung), IGF-1 in Media, 100 nM antibody) was 46%, the percent growth inhibition ([2]; SW620 (Colon), IGF-1 in Media, 0.1 nM antibody) was 10% and the percent growth inhibition ([2]; SW620 (Colon), IGF-1 in Media, 1 nM antibody) was 12%. The percent growth inhibition ([2]; SW620 (Colon), IGF-1 in Media, 10 nM antibody) was 13%, the percent growth inhibition ([2]; SW620 (Colon), IGF-1 in Media, 100 nM antibody) was 27% and the “inhibition of BxPC3 cell proliferation driven with IGF-1 and IGF-2” value [1] was “inhibited”.
